US20240182571A1 (OSE IMMUNOTHERAPEUTICS, published 2024)

T1: CD127 (immobilized to the sensor chip) (UniProt P16871 21-239, limits assumed)
T1 construct: Reagent of the Biacore assay; Nothing is said about the construct; also called CD127 receptor; IL-7R
T1 sequence (looked up): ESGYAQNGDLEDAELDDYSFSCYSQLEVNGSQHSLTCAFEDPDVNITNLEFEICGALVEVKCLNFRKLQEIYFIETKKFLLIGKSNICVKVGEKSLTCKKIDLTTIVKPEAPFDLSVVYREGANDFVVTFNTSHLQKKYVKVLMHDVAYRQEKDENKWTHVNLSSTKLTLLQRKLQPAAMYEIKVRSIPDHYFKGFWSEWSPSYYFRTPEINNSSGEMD


Tests used:
[1] = target: T2, Recombinant hPD1 (Sino Biologicals, reference 10377-H08H) (human, UniProt Q15116 fragment); assay: ELISA, recombinant human PD-1 immobilised, anti-human Fc peroxidase
T2 construct: Bought reagent, immobilised on plastic; also called Human recombinant PD-1; rPD1

[2] = target: T1, CD127 (immobilized to the sensor chip); assay: Biacore, CD127 immobilised to the sensor chip, bifunctional molecule at escalating doses
[3] = target: T3, biotinylated Human PD1 (AcroBiosystems, reference EP-101) (human, UniProt Q15116 fragment, limits assumed, biotinylated); assay: competitive ELISA, PD-L1 immobilised, antibody mixed with biotinylated human PD-1; PD1/PDL1 antagonist activity
T3 construct: also called biotinylated recombinant human PD-1; Biotin-PD-1Fc

Binder	EC50 [1] [nM]	Kd [2] [nM]	EC50 [3] [nM]
anti PD-1*2 IL-7 W142H*1 (other, Bifunctional antibody-cytokine fusion: two anti PD-1 arms and one IL-7 W142H; IgG1 N298A, knob on chain A and hole on chain B. Chain B carries the IL-7 variant; also called construction 2; anti PD-1*2/IL-7v*1) heavy 1: QIQLVQSGSELKKPGASVKVSCKASGYTFTHYAMNWVRQAPGQGLEWMGWINTNTGEPTYAQGFTGRFVFSLDTSVSTAYLQISSLKAEDTAVYYCAREREPGMDNWGQGTLVTVSSASTKGPSVFPLAPSSKSTSGGTAALGCLVKDYFPEPVTVSWNSGALTSGVHTFPAVLQSSGLYSLSSVVTVPSSSLGTQTYICNVNHKPSNTKVDKKVEPKSCDKTHTCPPCPAPELLGGPSVFLFPPKPKDTLMISRTPEVTCVVVDVSHEDPEVKFNWYVDGVEVHNAKTKPREEQYASTYRVVSVLTVLHQDWLNGKEYKCKVSNKALPAPIEKTISKAKGQPREPQVYTLPPCRDELTKNQVSLWCLVKGFYPSDIAVEWESNGQPENNYKTTPPVLDSDGSFFLYSKLTVDKSRWQQGNVFSCSVMHEALHNHYTQKSLSLSPGK heavy 2: QIQLVQSGSELKKPGASVKVSCKASGYTFTHYAMNWVRQAPGQGLEWMGWINTNTGEPTYAQGFTGRFVFSLDTSVSTAYLQISSLKAEDTAVYYCAREREPGMDNWGQGTLVTVSSASTKGPSVFPLAPSSKSTSGGTAALGCLVKDYFPEPVTVSWNSGALTSGVHTFPAVLQSSGLYSLSSVVTVPSSSLGTQTYICNVNHKPSNTKVDKKV[human IgG1 Fc with changes not listed]GGGGSGGGGSGGGGSDCDIEGKDGKQYESVLMVSIDQLLDSMKEIGSNCLNNEFNFFKRHICDANKEGMFLFRAARKLRQFLKMNSTGDFDLHLLKVSEGTTILLNCTGQVKGRKPAALGEAQPTKSLEENKSLKEQKKLNDLCFLKRLLQEIKTCHNKILMGTKEH light: DVVMTQSPLSLPVTLGQPASISCRSSQSLVHANTNTYLEWYQQRPGQSPRLLIYKVSNRFSGVPDRFSGSGSGTDFTLKISRVEAEDVGVYYCFQGTHVPNTFGQGTKLEIKRTVAAPSVFIFPPSDEQLKSGTASVVCLLNNFYPREAKVQWKVDNALQSGNSQESVTEQDSKDSTYSLSSTLTLSKADYEKHKVYACEVTHQGLSSPVTKSFNRGEC	0.026	45.2	2.17
anti PD-1*2 IL7 wild type*2 (other, Control corresponding to construction 1 but with wild type IL-7; also called antiPD-1*2 IL-7 WT*2; BICKI-IL-7 WT) heavy: QIQLVQSGSELKKPGASVKVSCKASGYTFTHYAMNWVRQAPGQGLEWMGWINTNTGEPTYAQGFTGRFVFSLDTSVSTAYLQISSLKAEDTAVYYCAREREPGMDNWGQGTLVTVSSASTKGPSVFPLAPSSKSTSGGTAALGCLVKDYFPEPVTVSWNSGALTSGVHTFPAVLQSSGLYSLSSVVTVPSSSLGTQTYICNVNHKPSNTKVDKKV[human IgG1 Fc with changes not listed]GGGGSGGGGSGGGGSDCDIEGKDGKQYESVLMVSIDQLLDSMKEIGSNCLNNEFNFFKRHICDANKEGMFLFRAARKLRQFLKMNSTGDFDLHLLKVSEGTTILLNCTGQVKGRKPAALGEAQPTKSLEENKSLKEQKKLNDLCFLKRLLQEIKTCWNKILMGTKEH light: DVVMTQSPLSLPVTLGQPASISCRSSQSLVHANTNTYLEWYQQRPGQSPRLLIYKVSNRFSGVPDRFSGSGSGTDFTLKISRVEAEDVGVYYCFQGTHVPNTFGQGTKLEIKRTVAAPSVFIFPPSDEQLKSGTASVVCLLNNFYPREAKVQWKVDNALQSGNSQESVTEQDSKDSTYSLSSTLTLSKADYEKHKVYACEVTHQGLSSPVTKSFNRGEC		0.87	
anti PD-1*2 IL-7 W142H*2 (other, also called construction 1; BICKI-IL-7 W142H) heavy: QIQLVQSGSELKKPGASVKVSCKASGYTFTHYAMNWVRQAPGQGLEWMGWINTNTGEPTYAQGFTGRFVFSLDTSVSTAYLQISSLKAEDTAVYYCAREREPGMDNWGQGTLVTVSSASTKGPSVFPLAPSSKSTSGGTAALGCLVKDYFPEPVTVSWNSGALTSGVHTFPAVLQSSGLYSLSSVVTVPSSSLGTQTYICNVNHKPSNTKVDKKV[human IgG1 Fc with changes not listed]GGGGSGGGGSGGGGSDCDIEGKDGKQYESVLMVSIDQLLDSMKEIGSNCLNNEFNFFKRHICDANKEGMFLFRAARKLRQFLKMNSTGDFDLHLLKVSEGTTILLNCTGQVKGRKPAALGEAQPTKSLEENKSLKEQKKLNDLCFLKRLLQEIKTCHNKILMGTKEH light: DVVMTQSPLSLPVTLGQPASISCRSSQSLVHANTNTYLEWYQQRPGQSPRLLIYKVSNRFSGVPDRFSGSGSGTDFTLKISRVEAEDVGVYYCFQGTHVPNTFGQGTKLEIKRTVAAPSVFIFPPSDEQLKSGTASVVCLLNNFYPREAKVQWKVDNALQSGNSQESVTEQDSKDSTYSLSSTLTLSKADYEKHKVYACEVTHQGLSSPVTKSFNRGEC	0.034	37.3	2.79
anti PD-1*1 IL-7 W142H*2 (other, Bifunctional antibody-cytokine fusion: one anti PD-1 arm and two IL-7 W142H; IgG1 N298A, knob-into-hole; also called construction 4; anti PD-1*1/IL-7v*2) DKTHTCPPCPAPELLGGPSVFLFPPKPKDTLMISRTPEVTCVVVDVSHEDPEVKFNWYVDGVEVHNAKTKPREEQYASTYRVVSVLTVLHQDWLNGKEYKCKVSNKALPAPIEKTISKAKGQPREPQVYTLPPCRDELTKNQVSLWCLVKGFYPSDIAVEWESNGQPENNYKTTPPVLDSDGSFFLYSKLTVDKSRWQQGNVFSCSVMHEALHNHYTQKSLSLSPGKGGGGSGGGGSGGGGSDCDIEGKDGKQYESVLMVSIDQLLDSMKEIGSNCLNNEFNFFKRHICDANKEGMFLFRAARKLRQFLKMNSTGDFDLHLLKVSEGTTILLNCTGQVKGRKPAALGEAQPTKSLEENKSLKEQKKLNDLCFLKRLLQEIKTCHNKILMGTKEH heavy: QIQLVQSGSELKKPGASVKVSCKASGYTFTHYAMNWVRQAPGQGLEWMGWINTNTGEPTYAQGFTGRFVFSLDTSVSTAYLQISSLKAEDTAVYYCAREREPGMDNWGQGTLVTVSSASTKGPSVFPLAPSSKSTSGGTAALGCLVKDYFPEPVTVSWNSGALTSGVHTFPAVLQSSGLYSLSSVVTVPSSSLGTQTYICNVNHKPSNTKVDKKV[human IgG1 Fc with changes not listed]GGGGSGGGGSGGGGSDCDIEGKDGKQYESVLMVSIDQLLDSMKEIGSNCLNNEFNFFKRHICDANKEGMFLFRAARKLRQFLKMNSTGDFDLHLLKVSEGTTILLNCTGQVKGRKPAALGEAQPTKSLEENKSLKEQKKLNDLCFLKRLLQEIKTCHNKILMGTKEH light: DVVMTQSPLSLPVTLGQPASISCRSSQSLVHANTNTYLEWYQQRPGQSPRLLIYKVSNRFSGVPDRFSGSGSGTDFTLKISRVEAEDVGVYYCFQGTHVPNTFGQGTKLEIKRTVAAPSVFIFPPSDEQLKSGTASVVCLLNNFYPREAKVQWKVDNALQSGNSQESVTEQDSKDSTYSLSSTLTLSKADYEKHKVYACEVTHQGLSSPVTKSFNRGEC	0.086		
